{"source": "the supplement of paper PMC8728848", "assay_in_all_cases": "glycan array binding signal (z-score within array); higher = stronger binding", "conditions_in_all_cases": "glycan notation: IUPAC condensed, linker removed", "key": {"Kdn(a2-3)Gal(b1-4)Glc": {"target": "Kdn(a2-3)Gal(b1-4)Glc", "outline": "(§1)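 Columns mapping to the same glycan were averaged after glycan names were converted to IUPAC-condensed notation. The data come from 3228 arrays in the Consortium for Functional Glycomics database, limited to those with an available protein sequence. Binding is reported as a within-array Z-score averaged across arrays of one protein sequence and across linkers.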"}, "Kdn(a2-3)Gal(b1-4)GlcNAc": {"target": "Kdn(a2-3)Gal(b1-4)GlcNAc", "outline": "as §1"}, "[1]": {"target": "Kdn(a2-3)Gal(b1-4)[Fuc(a1-3)]GlcNAc", "outline": "as §1"}, "Kdn(a2-6)Gal(b1-4)GlcNAc": {"target": "Kdn(a2-6)Gal(b1-4)GlcNAc", "outline": "as §1"}, "[2]": {"target": "Man(a1-2)Man(a1-2)Man(a1-3)Man", "outline": "as §1"}, "[3]": {"target": "Man(a1-2)Man(a1-2)Man(a1-6)[Man(a1-3)]Man", "outline": "as §1"}, "Man(a1-2)Man(a1-3)Man": {"target": "Man(a1-2)Man(a1-3)Man", "outline": "as §1"}, "[4]": {"target": "Man(a1-2)Man(a1-3)[Man(a1-2)Man(a1-6)]Man", "outline": "as §1"}, "[5]": {"target": "Man(a1-2)Man(a1-3)[Man(a1-2)Man(a1-6)]Man(a1-6)[Man(a1-2)Man(a1-2)Man(a1-3)]Man", "outline": "as §1"}, "[6]": {"target": "Man(a1-2)Man(a1-3)[Man(a1-2)Man(a1-6)]Man(a1-6)[Man(a1-2)Man(a1-2)Man(a1-3)]Man(b1-4)GlcNAc(b1-4)GlcNAc", "outline": "as §1"}, "[7]": {"target": "Man(a1-2)Man(a1-3)[Man(a1-6)]Man(a1-6)[Man(a1-2)Man(a1-3)]Man(b1-4)GlcNAc(b1-4)GlcNAc", "outline": "as §1"}, "[8]": {"target": "Man(a1-2)Man(a1-6)[Man(a1-3)]Man(a1-6)[Man(a1-2)Man(a1-2)Man(a1-3)]Man", "outline": "as §1"}, "[9]": {"target": "Man(a1-2)Man(a1-6)[Man(a1-3)]Man(a1-6)[Man(a1-2)Man(a1-2)Man(a1-3)]Man(b1-4)GlcNAc(b1-4)GlcNAc", "outline": "as §1"}, "Man(a1-3)[Man(a1-6)]Man": {"target": "Man(a1-3)[Man(a1-6)]Man", "outline": "as §1"}, "[10]": {"target": "Man(a1-3)[Man(a1-6)]Man(a1-6)[Man(a1-2)Man(a1-3)]Man(b1-4)GlcNAc(b1-4)GlcNAc", "outline": "as §1"}, "[11]": {"target": "Man(a1-3)[Man(a1-6)]Man(a1-6)[Man(a1-3)]Man", "outline": "as §1"}, "[12]": {"target": "Man(a1-3)[Man(a1-6)]Man(a1-6)[Man(a1-3)]Man(b1-4)GlcNAc(b1-4)GlcNAc", "outline": "as §1"}, "[13]": {"target": "Man(a1-3)[Man(a1-6)]Man(b1-4)GlcNAc(b1-4)GlcNAc", "outline": "as §1"}, "[14]": {"target": "Man(a1-3)[Man(a1-6)]Man(b1-4)GlcNAc(b1-4)[Fuc(a1-6)]GlcNAc", "outline": "as §1"}, "Man(a1-6)Man": {"target": "Man(a1-6)Man", "outline": "as §1"}, "Man(b1-4)GlcNAc": {"target": "Man(b1-4)GlcNAc", "outline": "as §1"}, "MurNAc(b1-4)GlcNAc": {"target": "MurNAc(b1-4)GlcNAc", "outline": "as §1"}, "Neu5Ac(a2-3)Gal": {"target": "Neu5Ac(a2-3)Gal", "outline": "as §1"}, "[15]": {"target": "Neu5Ac(a2-3)Gal(b1-3)GalNAc", "outline": "as §1"}, "[16]": {"target": "Neu5Ac(a2-3)Gal(b1-3)GalNAc(b1-3)Gal(a1-4)Gal(b1-4)Glc", "outline": "as §1"}, "[17]": {"target": "Neu5Ac(a2-3)Gal(b1-3)GalNAc(b1-4)[Neu5Ac(a2-3)]Gal(b1-4)Glc", "outline": "as §1"}, "[18]": {"target": "Neu5Ac(a2-3)Gal(b1-3)GalNAc(b1-4)[Neu5Ac(a2-8)Neu5Ac(a2-3)]Gal(b1-4)Glc", "outline": "as §1"}, "[19]": {"target": "Neu5Ac(a2-3)Gal(b1-3)GalNAc6S", "outline": "as §1"}, "[20]": {"target": "Neu5Ac(a2-3)Gal(b1-3)GlcNAc", "outline": "as §1"}, "[21]": {"target": "Neu5Ac(a2-3)Gal(b1-3)GlcNAc(b1-2)Man", "outline": "as §1"}, "[22]": {"target": "Neu5Ac(a2-3)Gal(b1-3)GlcNAc(b1-2)Man(a1-3)[GlcNAc(b1-4)][Neu5Ac(a2-3)Gal(b1-3)GlcNAc(b1-2)Man(a1-6)]Man(b1-4)GlcNAc(b1-4)GlcNAc", "outline": "as §1"}, "[23]": {"target": "Neu5Ac(a2-3)Gal(b1-3)GlcNAc(b1-2)Man(a1-3)[Neu5Ac(a2-3)Gal(b1-3)GlcNAc(b1-2)Man(a1-6)]Man(b1-4)GlcNAc(b1-4)GlcNAc", "outline": "as §1"}, "[24]": {"target": "Neu5Ac(a2-3)Gal(b1-3)GlcNAc(b1-3)Gal(b1-3)GlcNAc", "outline": "as §1"}, "[25]": {"target": "Neu5Ac(a2-3)Gal(b1-3)GlcNAc(b1-3)Gal(b1-4)GlcNAc", "outline": "as §1"}, "[26]": {"target": "Neu5Ac(a2-3)Gal(b1-3)GlcNAc(b1-3)GalNAc", "outline": "as §1"}, "[27]": {"target": "Neu5Ac(a2-3)Gal(b1-3)GlcNAc(b1-4)Gal(b1-4)Glc", "outline": "as §1"}, "[28]": {"target": "Neu5Ac(a2-3)Gal(b1-3)GlcNAc(b1-6)GalNAc", "outline": "as §1"}, "[29]": {"target": "Neu5Ac(a2-3)Gal(b1-3)GlcNAc6S", "outline": "as §1"}}, "note": "The other results are listed elsewhere or left out."}
{"binder": "Cohesin-hMARCO (Homo sapiens) (protein) LDDLDAVRIKVDTVNAKPGDTVRIPVRFSGIPSKGIANCDFVYSYDPNVLEIIEIEPGDIIVDPNPDKSFDTAVYPDRKIIVFLFAEDSGTGAYAITKDGVFATIVAKVKEGAPNGLSVIKFVEVGGFANNDLVEQKTQFFDGGANVGDTTEPATPTTPVTTPTTTDDLDAASVRIVGSSNRGRAEVYYSGTWGTICDDEWQNSDAIVFCRMLGYSKGRALYKVGAGTGQIWLDNVQCRGTESTLWSCTKNSWGHHDCSHEEDAGVECSVHHHHHH", "values": [{"measurement": "glycan array binding signal (z-score)", "setting": "Kdn(a2-3)Gal(b1-4)Glc", "value": -0.554}, {"measurement": "glycan array binding signal (z-score)", "setting": "Kdn(a2-3)Gal(b1-4)GlcNAc", "value": -0.517}, {"measurement": "glycan array binding signal (z-score)", "setting": "[1]", "value": -0.323}, {"measurement": "glycan array binding signal (z-score)", "setting": "Kdn(a2-6)Gal(b1-4)GlcNAc", "value": -0.537}, {"measurement": "glycan array binding signal (z-score)", "setting": "[2]", "value": 3.08}, {"measurement": "glycan array binding signal (z-score)", "setting": "[3]", "value": -0.482}, {"measurement": "glycan array binding signal (z-score)", "setting": "Man(a1-2)Man(a1-3)Man", "value": -0.004}, {"measurement": "glycan array binding signal (z-score)", "setting": "[4]", "value": -0.394}, {"measurement": "glycan array binding signal (z-score)", "setting": "[5]", "value": -0.423}, {"measurement": "glycan array binding signal (z-score)", "setting": "[6]", "value": -0.38}, {"measurement": "glycan array binding signal (z-score)", "setting": "[7]", "value": -0.232}, {"measurement": "glycan array binding signal (z-score)", "setting": "[8]", "value": -0.013}, {"measurement": "glycan array binding signal (z-score)", "setting": "[9]", "value": -0.494}, {"measurement": "glycan array binding signal (z-score)", "setting": "Man(a1-3)[Man(a1-6)]Man", "value": -0.423}, {"measurement": "glycan array binding signal (z-score)", "setting": "[10]", "value": -0.517}, {"measurement": "glycan array binding signal (z-score)", "setting": "[11]", "value": -0.394}, {"measurement": "glycan array binding signal (z-score)", "setting": "[12]", "value": -0.579}, {"measurement": "glycan array binding signal (z-score)", "setting": "[13]", "value": -0.447}, {"measurement": "glycan array binding signal (z-score)", "setting": "[14]", "value": -0.571}, {"measurement": "glycan array binding signal (z-score)", "setting": "Man(a1-6)Man", "value": 3.28}, {"measurement": "glycan array binding signal (z-score)", "setting": "Man(b1-4)GlcNAc", "value": -0.552}, {"measurement": "glycan array binding signal (z-score)", "setting": "MurNAc(b1-4)GlcNAc", "value": -0.467}, {"measurement": "glycan array binding signal (z-score)", "setting": "Neu5Ac(a2-3)Gal", "value": 0.136}, {"measurement": "glycan array binding signal (z-score)", "setting": "[15]", "value": -0.475}, {"measurement": "glycan array binding signal (z-score)", "setting": "[16]", "value": -0.29}, {"measurement": "glycan array binding signal (z-score)", "setting": "[17]", "value": -0.483}, {"measurement": "glycan array binding signal (z-score)", "setting": "[18]", "value": -0.362}, {"measurement": "glycan array binding signal (z-score)", "setting": "[19]", "value": 1.01}, {"measurement": "glycan array binding signal (z-score)", "setting": "[20]", "value": -0.443}, {"measurement": "glycan array binding signal (z-score)", "setting": "[21]", "value": -0.035}, {"measurement": "glycan array binding signal (z-score)", "setting": "[22]", "value": 0.063}, {"measurement": "glycan array binding signal (z-score)", "setting": "[23]", "value": -0.11}, {"measurement": "glycan array binding signal (z-score)", "setting": "[24]", "value": -0.356}, {"measurement": "glycan array binding signal (z-score)", "setting": "[25]", "value": -0.232}, {"measurement": "glycan array binding signal (z-score)", "setting": "[26]", "value": -0.171}, {"measurement": "glycan array binding signal (z-score)", "setting": "[27]", "value": -0.356}, {"measurement": "glycan array binding signal (z-score)", "setting": "[28]", "value": 0.337}, {"measurement": "glycan array binding signal (z-score)", "setting": "[29]", "value": 0.039}]}
